The values below come from patent US20090018083A1.

This assay concerns the target GAL4-BTB^BCL6 (GAL4 DNA binding domain fused to the wild-type BCL6 BTB domain) (human). In words: cell-based or functional assay.

On to full-length SMRT, for which the enhancement of repression in reporter assays fell in the range of 2 to 3 fold.
